# In PMC12136788:
# This is one part of the list.
# T1: UNK ZnF1-3 (human, UniProt Q9C0B0 31-174)
# T1 sequence: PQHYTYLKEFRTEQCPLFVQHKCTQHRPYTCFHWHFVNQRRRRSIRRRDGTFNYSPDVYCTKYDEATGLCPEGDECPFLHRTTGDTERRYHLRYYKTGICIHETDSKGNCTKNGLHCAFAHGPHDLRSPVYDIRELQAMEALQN
# B1: chr16:94664741:94664742:+_ENSMUSG00000040785_ENSMUST00000117648|mus_hu|mus_mus_mus_hu_False|28_98 (ssRNA)
# RNA: GGGAGUUCUACAGUCCGACGAUCUGGUACUGAUCUUUGCAUUGGAUAUUCAGGAGAAAGGCUGGCCAAGGGUGUAUAUAUGCUGGUGUACUGGGGCAAACCUGGUACCAUGUUAAUGUAUGCUGGCGGUGUCUGGGUGAUAUCCAACAGAGGAUUGAGCAUCA
# B2: 37564219_37564339_4418_CDS_ENSG00000125686_ENST00000300651|human|control|control (ssRNA)
# RNA: GGGAGUUCUACAGUCCGACGAUCUCCACUACUUUCCCCAGGUUUCUGCAAAGUCACUUUGGCUUUAAUGCUAGGGGAGCCUCCAUCAUGCUUACUGAUGAUAAUUUUUGCCACACCUGUGCUCCCCACAUUUUUUGACUCUGACAACAGAGGAUUGAGCAUCA
# B3: 6138544_6138664_1533_ncRNA_ENSMUSG00000034377_ENSMUST00000152672|mouse|control|control (ssRNA)
# RNA: GGGAGUUCUACAGUCCGACGAUCCGUUCUCAUUUUCAAGUUCUUAGCGGGAAACCACACCAAUCCUUUGGAGAAAGAGCUGUUAGUAAGUGAUGAUGAAGAGGCAGUUCUCUUCGCUUUUACUCAGCCUCGUUAUUCUCAGCCCAACAGAGGAUUGAGCAUCA
# B4: 111179025_111179145_4737_3pUTR_ENSMUSG00000046785_ENSMUST00000060711|mouse|control|control (ssRNA)
# RNA: GGGAGUUCUACAGUCCGACGAUCACUGUAAAGCCAUCUGCUGAAGGGAAAGUGAGAGGAAGAGCAGGUCUGGGAGAAAGAGCCAAGAUGUGAAAGAGCAAAGAGUUAGCAAUAUUAGCAACUAUGAUUUACAGGGAAAUCUCACAACAGAGGAUUGAGCAUCA
# B5: 53434051_53437351_1664_CDS_ENSMUSG00000032030_ENSMUST00000166367|mouse|control|control (ssRNA)
# RNA: GGGAGUUCUACAGUCCGACGAUCAUACCUCAUAAAAACAUCUUUGUUUUGUACAUAUUUAAGUACCAAGAGCACUUCUUUAAGCUUUGCUUCAAUCUCCUCAGAUGUUAGUUUUUUGCUUAAUGGCGUUUUCCUUAACAACAUCAACAGAGGAUUGAGCAUCA
# B6: chr19:16212804:16212805:+_ENSG00000167460_ENST00000300933|hu_mus|hu_hu_hu_mus_False|38_78 (ssRNA)
# RNA: GGGAGUUCUACAGUCCGACGAUCAACAAUUCUGGAGUGAAGGAAAGAUGUAACAUGCAAUUAAUUAAAAGCUCAGUCAGAAGGCACAUGGGCAACAAUGACUAUUUCAGCAUUCUCGCUUGGAAUGCUUAAAGACAAUCUGUUCAACAGAGGAUUGAGCAUCA
# B7: chr1:52223104:52223105:-_ENSMUSG00000026103_ENSMUST00000114513|mus_hu|FALSE|FALSE (ssRNA)
# RNA: GGGAGUUCUACAGUCCGACGAUCGUUGUCAGAAUCUCCUUGAGGUGUGUACUGGACUUGGUAUUCUUGGAGAAUUUUAAAUACAUCAUGGUGUCCAAAGUGCAGUGCUUCAUCCAUGGGAGUGUUAUUCCACCUGUCCUUGGGCAACAGAGGAUUGAGCAUCA
# B8: chr19:8913615:8913616:-_ENSMUSG00000071658_ENSMUST00000096259|mus_hu|mus_mus_mus_hu_False|8_78 (ssRNA)
# RNA: GGGAGUUCUACAGUCCGACGAUCAGGGUACCAAAACCUUCUGCCUGAAAUGGGUGCCCCACCCUGCAGGGAGUUGCAGCUGAAAGUAUCUGAUGCAGAAGCAGUGACUAUACGAAAGGAGGCCCCUGAUGCUCAGAAGGCCAGCAACAGAGGAUUGAGCAUCA
# B9: chr7:90019490:90019491:+_ENSMUSG00000057706_ENSMUST00000082237|mus_hu|motif|central (ssRNA)
# RNA: GGGAGUUCUACAGUCCGACGAUCUCCGUCACAAUUGUGUGAUUAUUAAAAUAAUACAGUGUUCUUUGCCAUAAGGCCAUACGGAAAUAAAAAGAUUUAACCCAGCUACAAAAAAGUUCACUGAACUUAAAUUAAAAUACUUGUCAACAGAGGAUUGAGCAUCA
# B10: chr8:38205342:38205343:-_ENSG00000147548_ENST00000316985|hu_hu|motif|central (ssRNA)
# RNA: GGGAGUUCUACAGUCCGACGAUCCAGAAUUUCAUGUGGUCUUGUGUUUGGAAUUUCUGAAUGAUAAUAGUCAGUGGGGCGGAAGUUUCUAACUGCACCAAAGCCAUUGGCUGACCCAUUAGGAUACUGAUUAUAUGACUGGUACAACAGAGGAUUGAGCAUCA
# B11: chr3:54535082:54535083:-_ENSMUSG00000027752_ENSMUST00000029316|mus_hu|FALSE|FALSE (ssRNA)
# RNA: GGGAGUUCUACAGUCCGACGAUCGCAGGCAUCCAAAAUGUUUCCAUCGUAGUCGAGGCAAAUGAGAUCACAGUAUAGAACCCAGACAAGCUUUCCUGGAGAAAUGCAUAAGUCCUCUUUCUGAAUUAUCUGUGAAUUUUCAAUCAACAGAGGAUUGAGCAUCA
# B12: chr1:130270616:130270617:-_ENSMUSG00000026356_ENSMUST00000027602|mus_mus|FALSE|FALSE (ssRNA)
# RNA: GGGAGUUCUACAGUCCGACGAUCGUAAUGAUAAUUAAAGGCCAUUUCAAUAUCCAAACCAACAAAUUCAGUCAGAUGUCUAUGGGUAUUGGAGUCUUCAGCUCUGAAAACUGGUCCAAUGCAGAAAACCUUCUCAAAAUCAGCCAACAGAGGAUUGAGCAUCA
# B13: chr1:76259871:76259872:+_ENSG00000137955_ENST00000319942|hu_mus|motif|central (ssRNA)
# RNA: GGGAGUUCUACAGUCCGACGAUCAUCCACCAUAUCUCCUGGUCUGUCUGCAAAUCCUCCCGUCUCUUCAUCUUGACACGCGGAGAUGAAACUUCGAAGCUUUUCUCUGUCAAUCCAAUGAAGUCUCCCGAUGAUCUUUAGGGACAACAGAGGAUUGAGCAUCA
# B14: 52898879_52899641_1862_CDS_ENSMUSG00000035247_ENSMUST00000042052|mouse|control|control (ssRNA)
# RNA: GGGAGUUCUACAGUCCGACGAUCCUUCAAGUAGAGCGGUGCCAUUUCUGGAUCCCCUCUGGGUUCAUUGCAUUCCUCUUCAUCUUUGUUUGUAUCUUUCUUUUUUUUGUCAUCCCCUUUAUUAACUGGACACAUCCAAUCACCCAACAGAGGAUUGAGCAUCA
# B15: 87783043_87783163_4856_CDS_ENSMUSG00000004891_ENSMUST00000090973|mouse|control|control (ssRNA)
# RNA: GGGAGUUCUACAGUCCGACGAUCCUCUGGUGGGUCACUGAGACCCUGGGCAGCCAGGGCAGCAGGACUCCAGCCUUCCUUCCUGGCCUCCCCUUGAGGGAAAAGCCUCUGUUCUCCAGCUUGCUCCCACUUUGGGGAGGCAGGCAACAGAGGAUUGAGCAUCA
# B16: chr4:95690885:95690886:+_ENSMUSG00000028572_ENSMUST00000156910|mus_mus|mus_mus_mus_hu_False|28_98 (ssRNA)
# RNA: GGGAGUUCUACAGUCCGACGAUCUUUAGAAAAUGUUAAUGUUAAAUCUAAAAUAUUUUCAAAGGCUUAUUUUAUUUUACCAGAAGUCACAGGCAAGCAGACACUACAAACAUACAAGAAAAUGAAACUCAACAAUAUAACUGUCAACAGAGGAUUGAGCAUCA
# B17: 180006062_180006182_4426_CDS_ENSG00000135837_ENST00000367607|human|control|control (ssRNA)
# RNA: GGGAGUUCUACAGUCCGACGAUCUGAAAUGCCUCUAACUCUUUCUACAUCUGACAGUUGGCGCACCGACUCCUCAAUGGCGUUCAGAUAACUGAGUUCUGCUGCCAUACGAUGAUGGAGGCCAGCAGGAGAAAAGCGCUUAGACAACAGAGGAUUGAGCAUCA
# B18: 160792165_160792285_4860_CDS_ENSMUSG00000057133_ENSMUST00000039782|mouse|control|control (ssRNA)
# RNA: GGGAGUUCUACAGUCCGACGAUCGUCAGUUCUUUUGUGUUGGGCAUAGUUUCUAUAGGCAUCUAGGAAGGAUAGCUGGGGGUCAUUCAUGAUGUAAUAGUCAGUGCGGUUGAGCCCAUGUUUGGCGGUGCCAAUGAGCAGGUCCAACAGAGGAUUGAGCAUCA
# B19: 64968284_64968404_3155_CDS_ENSG00000171988_ENST00000542921|human|control|control (ssRNA)
# RNA: GGGAGUUCUACAGUCCGACGAUCAUUCUCUCUCUCACCCUCAAGUCCCUUGAUUUUAGUUGUAAAGGGAGCAACAUCAAUACUUUCUUGAAGAAUUCGACGGUGUUCCUCUUUGUAUUUGUUUAACCUCUCUCCAGUCUCCUGCAACAGAGGAUUGAGCAUCA
# B20: chr1:25669491:25669492:+_ENSG00000183726_ENST00000374358|perfect_dup|FALSE|FALSE (ssRNA)
# RNA: GGGAGUUCUACAGUCCGACGAUCACAGGCAUGGUAUGAGUGGUUGAAAUCUUUCAUGGUGGGAUAAAUAACAGCUGCAUCUAUGAUAAUCCACCAGCCUGUAAAAAAUAGUACACCAGCAGCAAUGGAAGCAAUAGUAUUGCGCAACAGAGGAUUGAGCAUCA
# B21: 68315663_68321657_857_CDS_ENSG00000110075_ENST00000393800|human|control|control (ssRNA)
# RNA: GGGAGUUCUACAGUCCGACGAUCCAGGCGAACAAUUUCACAAAGUGAUUGUGAUGCAUUUGAAUGUCGAUCUUCUUCUUGCGAUGGAUGAACUAUUUCCACAAGCCUCUGGAUAAUUUUCUCCUCAUUUAACCAAUUCAGCACCAACAGAGGAUUGAGCAUCA
# B22: chr16:11201500:11201501:-_ENSMUSG00000005846_ENSMUST00000119953|perfect_dup|FALSE|FALSE (ssRNA)
# RNA: GGGAGUUCUACAGUCCGACGAUCGUUGAAUUGGGUUCAUCCUUCGUAAAUAAACAGAUAUCUUCUGAAUCUGAUCGAAUACUAUGAGGCAAGGUCCUGUUCUUUAUCCAGCUGCUUCCGUGCUGUCGGGGCCGCUGGAGUCGACAACAGAGGAUUGAGCAUCA
# Molecular target: T1, UNK ZnF1-3
# Assay: nsRBNS (natural sequence RNA bind-n-seq); RBNS binding buffer (assumed for nsRBNS): 25 mM Tris pH 7.5, 150 mM KCl, 3 mM MgCl2, 0.01% Triton X-100, 500 ug/ml BSA, 20 U/ml SUPERase-In, 4 C; UNK is unkempt and MSI1 is Musashi-1; names of the RNAs are library labels; protein concentration not given here; high values mean tight binding
row,Binder,binding signal [enrichment R]
1,B1,1.16
2,B2,0.639
3,B3,0.983
4,B4,2.54
5,B5,0.444
6,B6,1.2
7,B7,0.81
8,B8,1.01
9,B9,1.69
10,B10,1.21
11,B11,1.86
12,B12,0.972
13,B13,0.752
14,B14,0.444
15,B15,0.208
16,B16,2.3
17,B17,1.23
18,B18,1
19,B19,0.62
20,B20,2.1
21,B21,0.865
22,B22,0.377
